From the supplement of paper PMC8728848 come the findings set out here.

What all share (assay): glycan array binding signal (z-score within array); higher = stronger binding
Holding throughout (conditions): glycan notation: IUPAC condensed, linker removed

Experiment [1] concerns the target Gal(b1-4)GlcNAc(b1-3)Gal(b1-4)GlcNAc(b1-3)Gal(b1-4)GlcNAc(b1-3)Gal(b1-4)GlcNAc(b1-2)Man(a1-3)[Gal(b1-4)GlcNAc(b1-3)Gal(b1-4)GlcNAc(b1-3)Gal(b1-4)GlcNAc(b1-3)Gal(b1-4)GlcNAc(b1-2)Man(a1-6)]Man(b1-4)GlcNAc(b1-4)GlcNAc. The procedure, abridged: (§1)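 Glycan array data came from 3228 arrays in the Consortium for Functional Glycomics database, and only arrays with an available protein sequence were kept. Glycan names were put into IUPAC-condensed notation, and columns mapping to the same glycan were averaged. The binding signal is a within-array Z-score, averaged across arrays of one protein sequence run at different concentrations or buffers and across linkers. A negative Z-score can be read as non-binding.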

Experiment [2] has as its target Gal(b1-4)GlcNAc(b1-3)Gal(b1-4)GlcNAc(b1-3)Gal(b1-4)GlcNAc(b1-3)Gal(b1-4)GlcNAc(b1-2)Man(a1-3)[Gal(b1-4)GlcNAc(b1-3)Gal(b1-4)GlcNAc(b1-3)Gal(b1-4)GlcNAc(b1-3)Gal(b1-4)GlcNAc(b1-2)Man(a1-6)]Man(b1-4)GlcNAc(b1-4)[Fuc(a1-6)]GlcNAc. The gist of the method:
as §1

Experiment [3] has as its target Gal(b1-4)GlcNAc(b1-3)Gal(b1-4)GlcNAc(b1-3)Gal(b1-4)GlcNAc(b1-3)Gal(b1-4)GlcNAc(b1-2)[Gal(b1-4)GlcNAc(b1-3)Gal(b1-4)GlcNAc(b1-3)Gal(b1-4)GlcNAc(b1-3)Gal(b1-4)GlcNAc(b1-6)]Man(a1-6)[Gal(b1-4)GlcNAc(b1-3)Gal(b1-4)GlcNAc(b1-3)Gal(b1-4)GlcNAc(b1-3)Gal(b1-4)GlcNAc(b1-2)Man(a1-3)]Man(b1-4)GlcNAc(b1-4)[Fuc(a1-6)]GlcNAc. The procedure, abridged: as §1
The target of experiment [4] is Gal(b1-4)GlcNAc(b1-3)Gal(b1-4)GlcNAc(b1-3)Gal(b1-4)GlcNAc(b1-3)Gal(b1-4)GlcNAc(b1-3)Gal(b1-4)GlcNAc(b1-2)Man(a1-3)[Gal(b1-4)GlcNAc(b1-3)Gal(b1-4)GlcNAc(b1-3)Gal(b1-4)GlcNAc(b1-3)Gal(b1-4)GlcNAc(b1-3)Gal(b1-4)GlcNAc(b1-2)Man(a1-6)]Man(b1-4)GlcNAc(b1-4)GlcNAc. The procedure, abridged: as §1
The target of experiment [5] is Gal(b1-4)GlcNAc(b1-3)Gal(b1-4)GlcNAc(b1-3)Gal(b1-4)GlcNAc(b1-3)Gal(b1-4)GlcNAc(b1-3)Gal(b1-4)GlcNAc(b1-2)Man(a1-3)[Gal(b1-4)GlcNAc(b1-3)Gal(b1-4)GlcNAc(b1-3)Gal(b1-4)GlcNAc(b1-3)Gal(b1-4)GlcNAc(b1-3)Gal(b1-4)GlcNAc(b1-2)Man(a1-6)]Man(b1-4)GlcNAc(b1-4)[Fuc(a1-6)]GlcNAc. The procedure, abridged:
as §1

Experiment [6] deals with Gal(b1-4)GlcNAc(b1-3)Gal(b1-4)GlcNAc(b1-3)Gal(b1-4)GlcNAc(b1-3)Gal(b1-4)GlcNAc(b1-3)Gal(b1-4)GlcNAc(b1-2)[Gal(b1-4)GlcNAc(b1-3)Gal(b1-4)GlcNAc(b1-3)Gal(b1-4)GlcNAc(b1-3)Gal(b1-4)GlcNAc(b1-3)Gal(b1-4)GlcNAc(b1-6)]Man(a1-6)[Gal(b1-4)GlcNAc(b1-3)Gal(b1-4)GlcNAc(b1-3)Gal(b1-4)GlcNAc(b1-3)Gal(b1-4)GlcNAc(b1-3)Gal(b1-4)GlcNAc(b1-2)Man(a1-3)]Man(b1-4)GlcNAc(b1-4)[Fuc(a1-6)]GlcNAc. The procedure, abridged:
as §1

The target of experiment [7] is Gal(b1-4)GlcNAc(b1-3)Gal(b1-4)GlcNAc(b1-3)Gal(b1-4)GlcNAc(b1-3)Gal(b1-4)GlcNAc(b1-3)Gal(b1-4)GlcNAc(b1-3)Gal(b1-4)GlcNAc(b1-2)Man(a1-3)[Gal(b1-4)GlcNAc(b1-3)Gal(b1-4)GlcNAc(b1-3)Gal(b1-4)GlcNAc(b1-3)Gal(b1-4)GlcNAc(b1-3)Gal(b1-4)GlcNAc(b1-3)Gal(b1-4)GlcNAc(b1-2)Man(a1-6)]Man(b1-4)GlcNAc(b1-4)GlcNAc. The procedure, abridged: as §1
In experiment [8] the target is Gal(b1-4)GlcNAc(b1-3)Gal(b1-4)GlcNAc(b1-3)GalNAc. The gist of the method:
as §1

The target of experiment [9] is Gal(b1-4)GlcNAc(b1-3)Gal(b1-4)GlcNAc(b1-3)[Gal(b1-4)GlcNAc(b1-3)Gal(b1-4)GlcNAc(b1-6)]GalNAc. The procedure, abridged: as §1
Experiment [10] concerns the target Gal(b1-4)GlcNAc(b1-3)Gal(b1-4)GlcNAc(b1-6)[Gal(b1-3)]GalNAc. The procedure, abridged: as §1
Experiment [11] deals with Gal(b1-4)GlcNAc(b1-3)Gal(b1-4)[Fuc(a1-3)]GlcNAc(b1-3)Gal(b1-4)[Fuc(a1-3)]GlcNAc. The procedure, abridged:
as §1

For experiment [12], the target named is Gal(b1-4)GlcNAc(b1-3)GalNAc. The gist of the method: as §1
For experiment [13], the target named is Gal(b1-4)GlcNAc(b1-3)[Fuc(a1-3)GlcNAc(b1-6)]Gal(b1-4)Glc. The procedure, abridged: as §1
Experiment [14] has as its target Gal(b1-4)GlcNAc(b1-3)[Gal(b1-4)GlcNAc(b1-6)]Gal(b1-4)GlcNAc. The gist of the method: as §1
For experiment [15], the target named is Gal(b1-4)GlcNAc(b1-3)[GlcNAc(b1-6)]Gal(b1-4)GlcNAc. The gist of the method:
as §1

Experiment [16] deals with Gal(b1-4)GlcNAc(b1-6)Gal(b1-4)GlcNAc. The gist of the method: as §1
Experiment [17] addresses Gal(b1-4)GlcNAc(b1-6)GalNAc. The gist of the method:
as §1

Experiment [18] addresses Gal(b1-4)GlcNAc(b1-6)[Gal(b1-3)]GalNAc. The procedure, abridged: as §1
The target in experiment [19] is Gal(b1-4)GlcNAc(b1-6)[Gal(b1-4)GlcNAc(b1-3)]GalNAc. The gist of the method: as §1
For a further experiment, the target named is Gal(b1-4)GlcNAc6P. The procedure, abridged:
as §1

The next experiment deals with Gal(b1-6)Gal. The gist of the method: as §1
For another experiment, the target named is Gal3S(b1-3)GalNAc. The procedure, abridged:
as §1

The target of a further experiment is Gal3S(b1-3)GlcNAc. The gist of the method:
as §1

The other results are listed elsewhere or left out.

B1: CAA (Caragana arborescens) (protein)
chain: VAVEFDTFDNPDWDPRTKHIGIDVNSIRSNKTTQWGFWNRQVADVDISYEASSKTLNVSLYYPGESYIVTDVVDLKDILPEWVRIGF
Regarding B1, the “glycan array binding signal (z-score)” value is -0.244 in experiment [1]; -0.224 in [2]; -0.239 in experiment [3]; -0.237 in [4]; -0.246 in experiment [5]; -0.25 in experiment [6]. Further, the “glycan array binding signal (z-score)” value in [7] is -0.25; in [8] it was -0.201; in experiment [9], -0.179; in [10], -0.194; in [11], -0.242; in experiment [12], -0.246. The “glycan array binding signal (z-score)” value in experiment [13] is -0.232; in experiment [14], -0.233; in experiment [15], -0.235; in experiment [16] it was -0.235; in experiment [17] it was -0.241; in experiment [18], -0.232. Moreover, the “glycan array binding signal (z-score)” value was -0.243 in experiment [19]; -0.249 with Gal(b1-4)GlcNAc6P; -0.242 with Gal(b1-6)Gal; -0.239 in the experiment with Gal3S(b1-3)GalNAc; -0.238 with Gal3S(b1-3)GlcNAc.
